# Source: patent US10299477B2 (priority 2015, dated 2019)
# What was measured:
# Assay type in all cases: in vivo
# Plasmopara viticola = test: Test Example G: Downy mildew on vine; conditions: 7-10 days after inoculation; for Test G control value: Downy mildew on vine, 250 ppm sprayed before inoculation
# From the text: [Test Example G] Downy Mildew on Vine
# Seeds of a test plant (grape variety: Neomuscat) were planted followed by cultivating until three to four first leaves appeared. […] After the sprayed dilutions were dried, a zoosporangia suspension (1-2×10^4 zoosporangia/ml) of Plasmopara viticola was inoculated to the plants by spraying.
# Alternaia brassicicola = test: Test Example C: Alternaria sooty spot on cabbage; conditions: for Test C control value: Alternaria sooty spot on cabbage
# From the text: [Test Example C] Alternaria Sooty Spot on Cabbage
# Seeds of a test plant (cabbage variety: Shikidori) were planted followed by cultivating until the cotyledons extended.
# [1] = test system: Blumeria graminis f sp. hordei; test: Test Example D: Powdery mildew on barley; conditions: for Test D control value: Powdery mildew on barley
# From the text: [Test Example D] Powdery Mildew on Barley
# After the sprayed dilutions were dried, conidia of Blumeria graminis f sp. hordei were inoculated to the plants by shaking off.
# Botrytis cinerea = test: Test Example B: Gray mold on tomato; conditions: for Test B control value: Gray mold on tomato
# From the text: [Test Example B] Gray Mold on Tomato
# Seeds of a test plant (tomato variety: Oogata Fukuju) were planted followed by cultivating until three to five first leaves (true leaves) appeared.
# Puccinia recondita = test: Test Example E: Brown rust on wheat; conditions: for Test E control value: Brown rust on wheat
# From the text: [Test Example E] Brown Rust on Wheat
# [2] = 250 ppm spray, preventive, control value class
SMILES,Test G control value (Plasmopara viticola),Test C control value (Alternaia brassicicola),Test D control value [1],Test B control value (Botrytis cinerea),Test E control value (Puccinia recondita),"Test G control value (downy mildew on vine) (Plasmopara viticola; 250 ppm spray (2.5 ml/pot), preventive, control value class)",Test C control value (Alternaria sooty spot on cabbage) (Alternaia brassicicola; [2]),"Test D control value (powdery mildew on barley) [1, 2]",Test B control value (gray mold on tomato) (Botrytis cinerea; [2]),Test E control value (brown rust on wheat) (Puccinia recondita; [2])
CCn1c(-c2c(F)cccc2F)c(-c2ccccc2C)ccc1=O [Compound 160],H (H shows more than 50% of control values),H (H shows more than 50% of control values),H (H shows more than 50% of control values),H (H shows more than 50% of control values),H (H shows more than 50% of control values),–,–,–,–,–
CCn1c(-c2c(F)cccc2F)c(-c2ccccc2C)cc(Cl)c1=O [Compound 161],L (L shows 50% or less of control values),H (H shows more than 50% of control values),H (H shows more than 50% of control values),H (H shows more than 50% of control values),H (H shows more than 50% of control values),–,–,–,–,–
CCn1c(-c2c(F)cccc2F)c(-c2ccccc2C)cc(Br)c1=O [Compound 162],L (L shows 50% or less of control values),H (H shows more than 50% of control values),H (H shows more than 50% of control values),H (H shows more than 50% of control values),L (L shows 50% or less of control values),–,–,–,–,–
COc1cc(OC)cc(C2=C(c3c(F)cccc3Cl)N(C)C(=O)CC2)c1 [Compound 163],H (H shows more than 50% of control values),L (L shows 50% or less of control values),L (L shows 50% or less of control values),H (H shows more than 50% of control values),H (H shows more than 50% of control values),–,–,–,–,–
CCn1c(-c2c(F)cccc2Cl)c(-c2c(Cl)c(OC)cc(OC)c2Cl)cc(Cl)c1=O [Compound 167],L (L shows 50% or less of control values),L (L shows 50% or less of control values),L (L shows 50% or less of control values),L (L shows 50% or less of control values),L (L shows 50% or less of control values),–,–,–,–,–
Cn1c(-c2c(F)cccc2F)c(-c2cccc(F)c2)ccc1=O [Compound 168],H (H shows more than 50% of control values),H (H shows more than 50% of control values),H (H shows more than 50% of control values),H (H shows more than 50% of control values),H (H shows more than 50% of control values),–,–,–,–,–
Cn1c(-c2c(F)cccc2F)c(-c2cccc(F)c2)cc(Cl)c1=O [Compound 169],L (L shows 50% or less of control values),H (H shows more than 50% of control values),L (L shows 50% or less of control values),H (H shows more than 50% of control values),H (H shows more than 50% of control values),–,–,–,–,–
Cn1c(-c2c(F)cccc2F)c(-c2cccc(F)c2)cc(Br)c1=O [Compound 170],H (H shows more than 50% of control values),H (H shows more than 50% of control values),H (H shows more than 50% of control values),H (H shows more than 50% of control values),H (H shows more than 50% of control values),–,–,–,–,–
CCn1c(-c2c(F)cccc2F)c(-c2cccc(Cl)c2)ccc1=O [Compound 171],H (H shows more than 50% of control values),H (H shows more than 50% of control values),H (H shows more than 50% of control values),H (H shows more than 50% of control values),H (H shows more than 50% of control values),–,–,–,–,–
CN1C(=O)CCC(c2cccc(F)c2)=C1c1c(F)cccc1F [Compound 172],L (L shows 50% or less of control values),H (H shows more than 50% of control values),H (H shows more than 50% of control values),H (H shows more than 50% of control values),H (H shows more than 50% of control values),–,–,–,–,–
CCN1C(=O)CCC(c2cccc(Cl)c2)=C1c1c(F)cccc1F [Compound 173],H (H shows more than 50% of control values),H (H shows more than 50% of control values),H (H shows more than 50% of control values),H (H shows more than 50% of control values),H (H shows more than 50% of control values),–,–,–,–,–
CCN1C(=O)CCC(c2cc(OC)cc(OC)c2)=C1c1c(F)cccc1Br [Compound 174],H (H shows more than 50% of control values),H (H shows more than 50% of control values),L (L shows 50% or less of control values),H (H shows more than 50% of control values),H (H shows more than 50% of control values),–,–,–,–,–
CCn1c(-c2c(F)cccc2Br)c(-c2cc(OC)cc(OC)c2)ccc1=O [Compound 175],L (L shows 50% or less of control values),L (L shows 50% or less of control values),L (L shows 50% or less of control values),H (H shows more than 50% of control values),L (L shows 50% or less of control values),–,–,–,–,–
CCn1c(-c2c(F)cccc2Br)c(-c2cc(OC)cc(OC)c2Br)ccc1=O [Compound 176],H (H shows more than 50% of control values),H (H shows more than 50% of control values),H (H shows more than 50% of control values),H (H shows more than 50% of control values),H (H shows more than 50% of control values),–,–,–,–,–
CCn1c(-c2c(F)cccc2Br)c(-c2cc(OC)cc(OC)c2Cl)ccc1=O [Compound 177],H (H shows more than 50% of control values),H (H shows more than 50% of control values),H (H shows more than 50% of control values),H (H shows more than 50% of control values),H (H shows more than 50% of control values),–,–,–,–,–
CCn1c(-c2c(F)cccc2F)c(-c2cccc(Cl)c2)cc(Cl)c1=O [Compound 178],L (L shows 50% or less of control values),H (H shows more than 50% of control values),L (L shows 50% or less of control values),L (L shows 50% or less of control values),L (L shows 50% or less of control values),–,–,–,–,–
CCn1c(-c2c(F)cccc2F)c(-c2cccc(Cl)c2)cc(Br)c1=O [Compound 179],L (L shows 50% or less of control values),H (H shows more than 50% of control values),L (L shows 50% or less of control values),L (L shows 50% or less of control values),L (L shows 50% or less of control values),–,–,–,–,–
Cc1ccccc1-c1cc(Cl)c(=O)n(C)c1-c1c(F)cccc1F [Compound 181],L (L shows 50% or less of control values),H (H shows more than 50% of control values),L (L shows 50% or less of control values),H (H shows more than 50% of control values),H (H shows more than 50% of control values),–,–,–,–,–
Cc1ccccc1-c1cc(Br)c(=O)n(C)c1-c1c(F)cccc1F [Compound 182],L (L shows 50% or less of control values),H (H shows more than 50% of control values),L (L shows 50% or less of control values),H (H shows more than 50% of control values),H (H shows more than 50% of control values),–,–,–,–,–
COc1cc(OC)cc(-c2ccc(=O)n(C)c2-c2c(F)cccc2Br)c1 [Compound 183],L (L shows 50% or less of control values),L (L shows 50% or less of control values),L (L shows 50% or less of control values),H (H shows more than 50% of control values),H (H shows more than 50% of control values),–,–,–,–,–
COc1cc(OC)c(Br)c(-c2ccc(=O)n(C)c2-c2c(F)cccc2Br)c1 [Compound 184],H (H shows more than 50% of control values),H (H shows more than 50% of control values),H (H shows more than 50% of control values),H (H shows more than 50% of control values),H (H shows more than 50% of control values),–,–,–,–,–
COc1cc(OC)c(Cl)c(-c2ccc(=O)n(C)c2-c2c(F)cccc2Br)c1 [Compound 185],–,–,–,–,–,L (L shows 50% or less of control values),H (H shows more than 50% of control values),H (H shows more than 50% of control values),H (H shows more than 50% of control values),H (H shows more than 50% of control values)
